Measurements taken from PubChem BioAssay AID1476 (National Center for Advancing Translational Sciences (NCATS), 2009).
Screen size: about 200,000 compounds; about 4,500 (2.2%) were called active. The inconclusive results got no clear call from the source; some entries with a clear call stand among them for comparison. Calls follow the shape of the dose curve; as a rule, active = well fitted inhibition curve with a large enough effect; inconclusive = small, poorly fitted or top-dose-only effect, or effect the other way; inactive = flat fitted curve, though single readings scatter. A potency beside an inconclusive call is a rough fit, not a confirmed value.

target: Cruzipain (Trypanosoma cruzi) (UniProt P25779); test: qHTS Assay for Promiscuous and Specific Inhibitors of Cruzain (without detergent); details: purified cruzain, Z-FR-AMC fluorescence, no detergent; also: nearly all actives have a fitted effect of over 40% in size;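 as to max response, negative = inhibition: plate controls were enzyme without inhibitor for no effect and buffer without enzyme for full effect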
UniProt P25779, sequence (P25779 whole entry, looked up): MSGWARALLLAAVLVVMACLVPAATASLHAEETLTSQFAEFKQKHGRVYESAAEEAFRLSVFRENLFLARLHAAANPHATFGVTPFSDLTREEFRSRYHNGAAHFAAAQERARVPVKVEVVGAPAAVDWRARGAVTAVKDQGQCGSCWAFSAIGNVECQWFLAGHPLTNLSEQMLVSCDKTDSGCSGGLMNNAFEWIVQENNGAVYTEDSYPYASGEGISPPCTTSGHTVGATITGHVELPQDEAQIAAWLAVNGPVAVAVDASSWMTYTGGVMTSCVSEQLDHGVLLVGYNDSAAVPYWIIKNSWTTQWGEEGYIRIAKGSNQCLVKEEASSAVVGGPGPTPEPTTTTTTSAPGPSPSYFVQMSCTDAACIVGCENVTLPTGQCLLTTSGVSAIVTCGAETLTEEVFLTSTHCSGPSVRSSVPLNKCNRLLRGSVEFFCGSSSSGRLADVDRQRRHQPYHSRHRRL
Summary of the method: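 Purified cruzain at 1.5 nM, pre-incubated 15 min with compound at room temperature in 100 mM sodium acetate pH 5.5, 5 mM DTT, 0.00005% Triton X-100. Reaction started with 2 uM Z-FR-AMC; AMC fluorescence increase over 60 s gives rate.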
Potency is read from the fitted curve at half-maximal effect; tags tell the direction and shape of the fitted curve.

Q: With `CCc1ccc(N2C(=O)CSC23C(=O)N(Cc2cccc(F)c2)c2ccccc23)cc1` (stereo not given) as the compound, how does the max response, negative = inhibition read?
A: Its max response, negative = inhibition is inactive: -3.9%.

Q: For `CC(CC(=O)O)(CC(=O)O)C(=O)O`, which max response, negative = inhibition is on record?
A: The max response, negative = inhibition was inactive: 2.98%.

Q: `O=C(Nc1c(C(=O)Nc2cccc(F)c2)oc2ccccc12)c1ccc2c(c1)OCO2` was tested. Which Potency did it give?
A: The Potency was inconclusive: 39.8 µM [inhibitor, single point].

Q: With `O=C1CCC(=O)N1c1nc2n(n1)C(c1ccccc1)C=C(c1ccc(Br)cc1)N2` (stereo not given) as the compound, how does the Potency read?
A: The Potency was inconclusive: 31.6 µM [activator, single point].

Q: `CCOC(=O)c1c(C)[nH]c(CCC(=O)Nc2cc(C)cc(C)c2)c1C` was tested. Which max response, negative = inhibition did it give?
A: The max response, negative = inhibition was inactive: -20.5%.

Q: `O=C(Cn1ccc2ccccc2c1=O)NCCC(=O)N1CCN(c2cccc(C(F)(F)F)c2)CC1` was tested. Which Potency did it give?
A: Its Potency is inconclusive: 31.6 µM [activator, single point].

Q: How did the max response, negative = inhibition turn out when `OC(CN1CCNCC1)Cn1c2ccc(Br)cc2c2cc(Br)ccc21` (stereo not given) was run?
A: Its max response, negative = inhibition is inactive: -2%.

Q: `CCSc1nc2sc3c(c2c(=O)[nH]1)CCc1ccccc1-3` was tested. Which Potency did it give?
A: Its Potency is inconclusive: 39.8 µM [inhibitor, single point].

Q: For `COc1ccccc1CNc1nc(-c2ccoc2)nc2ccccc12`, which Potency is on record?
A: Its Potency is active: 25.1 µM.

Q: How did the Potency turn out when `CSc1nncc(/C(C)=N\Nc2ccccc2C)n1` was run?
A: The Potency was inconclusive: 39.8 µM [inhibitor, single point].

Q: Which Potency does the source give for `C=CCn1c(SCCC)nc2sc3c(c2c1=O)CCc1ccccc1-3` here?
A: Its Potency is inconclusive: 3.16 µM [inhibitor, single point].

Q: With `O=C(Cc1ccc(Cl)cc1)NCC(c1cccs1)S(=O)(=O)c1ccc(Cl)cc1` (stereo not given) as the compound, how does the max response, negative = inhibition read?
A: Its max response, negative = inhibition is inactive: 1.56%.

Q: Which max response, negative = inhibition does the source give for `Cc1ccc(S(=O)(=O)CCC(=O)OCC(=O)Nc2ncc(Cl)cc2Cl)cc1` here?
A: Its max response, negative = inhibition is inactive: -15.4%.

Q: With `COc1ccccc1NC(=O)c1sc2nc(-c3cc4ccccc4oc3=O)[nH]c(=O)c2c1C` as the compound, how does the Potency read?
A: Its Potency is inconclusive: 39.8 µM [activator, single point].

Q: Which max response, negative = inhibition does the source give for `Cn1ncc2c(N3CCN(c4ccccc4Cl)CC3)ncnc21` here?
A: The max response, negative = inhibition was inactive: 12.4%.

Q: For `CC1Cc2ccccc2N1C(=O)CSc1nnnn1-c1ccc2c(c1)OCCO2` (stereo not given), which Potency is on record?
A: The Potency was inconclusive: 31.6 µM [inhibitor, single point].

Q: Which Potency does the source give for `CCC(Sc1nnc(-c2ccc(OC)cc2)c(-c2ccc(OC)cc2)n1)C(=O)Nc1cccc(OC)c1` (stereo not given) here?
A: The Potency was inconclusive: 39.8 µM [inhibitor, single point].

Q: How did the Potency turn out when `O=C1CSC(c2cn(-c3ccccc3)nc2-c2ccc3c(c2)OCCO3)N1CCN1CCOCC1` (stereo not given) was run?
A: The Potency was inconclusive: 31.6 µM [activator, single point].

Q: Which Potency does the source give for `Cc1ccc(NC(=O)C(NC2CCCc3ccccc32)c2ccccc2)c([N+](=O)[O-])c1` (stereo not given) here?
A: Its Potency is inconclusive: 25.1 µM [inhibitor, single point].

Q: `CCCCS(=O)CC(O)CSc1nc(-c2ccc(OC)cc2)cc(-c2ccccc2)c1C#N` (stereo not given) was tested. Which Potency did it give?
A: The Potency was inconclusive: 20 µM [activator, single point].

Q: For `Cc1ccc(/C=C/c2onc(C)c2S(=O)(=O)N2CCC(C(=O)NCc3ccc(N(C)C)cc3)CC2)cc1`, which max response, negative = inhibition is on record?
A: Its max response, negative = inhibition is inactive: -7.1%.

Q: Which max response, negative = inhibition does the source give for `C[C@@H](C(=O)O)c1cccc(C(=O)c2ccccc2)c1` here?
A: Its max response, negative = inhibition is inactive: -6.33%.

Q: With `N#Cc1cccc(-c2nc(NCc3ccccc3)c3ccccc3n2)c1` as the compound, how does the max response, negative = inhibition read?
A: Its max response, negative = inhibition is inactive: 11.3%.

Q: `CCC1=C2CC[C@H]3C(=O)N(c4ccccc4)C(=O)[C@H]3[C@H]2[C@@]2(C)C(=NCC(=O)OC)OC(=O)N2C1=O` was tested. Which max response, negative = inhibition did it give?
A: The max response, negative = inhibition was inactive: 8.07%.

Q: For `O=C(Nc1ccc(S(=O)(=O)N2CCN(c3ccccc3)CC2)cc1)c1cccs1`, which Potency is on record?
A: Its Potency is inconclusive: 39.8 µM [inhibitor, single point].

Q: `CCOC(=O)c1c(NC(=O)COC(=O)Cn2c(C(F)(F)F)nc3ccccc32)sc(C)c1C` was tested. Which max response, negative = inhibition did it give?
A: The max response, negative = inhibition was inactive: -4.13%.

Q: `O=C(NCc1ccco1)c1ccccc1NS(=O)(=O)c1ccc(Br)s1` was tested. Which Potency did it give?
A: Its Potency is inconclusive: 31.6 µM [inhibitor, single point].

Q: Which Potency does the source give for `CCOC(=O)c1ccc(N2C(=O)c3n[nH]c(C)c3C2c2ccc(OC)cc2OC)cc1` (stereo not given) here?
A: The Potency was inconclusive: 39.8 µM [activator, single point].

Q: For `Cc1nn(-c2ccccc2)c2sc(C(=O)O)cc12`, which max response, negative = inhibition is on record?
A: The max response, negative = inhibition was inactive: -12.1%.

Q: How did the Potency turn out when `COc1ccc(NC(=O)CN2C(=O)CC(c3ccco3)Sc3ccccc32)cc1OC` (stereo not given) was run?
A: The Potency was inconclusive: 39.8 µM [activator, single point].

Q: With `Cc1noc(C)c1CSc1nc2ccccc2c(=O)n1-c1ccc(Cl)cc1` as the compound, how does the Potency read?
A: The Potency was active: 20 µM.

Q: `Cc1ccc(NC(=O)c2ccc(CNS(=O)(=O)c3cccc(C(F)(F)F)c3)cc2)cc1` was tested. Which Potency did it give?
A: Its Potency is active: 25.1 µM.

Q: `Cn1c(-n2c(CCN3C(=O)c4ccccc4C3=O)nc3ccccc3c2=O)nc2ccccc21` was tested. Which Potency did it give?
A: Its Potency is inconclusive: 39.8 µM [inhibitor, single point].

Q: `CC(=O)c1ccc(N2CCN(S(=O)(=O)c3ccc4[nH]c5c(c4c3)CCCCC5)CC2)cc1` was tested. Which Potency did it give?
A: The Potency was active: 10 µM.

Q: For `CNc1oc(-c2ccc(Cl)cc2)nc1P(=O)(c1ccccc1)c1ccccc1`, which Potency is on record?
A: Its Potency is inconclusive: 3.16 µM [inhibitor, single point].

Q: With `CCC(C)NC(=O)c1[nH]c2cc(OC)ccc2c1Sc1ccc(C)cc1` (stereo not given) as the compound, how does the Potency read?
A: Its Potency is inconclusive: 31.6 µM [inhibitor, single point].

Q: Which max response, negative = inhibition does the source give for `CCOC(=O)C1CCN(C(=O)c2cc3ccc4ccc(C)[nH]c4c3n2)CC1` here?
A: The max response, negative = inhibition was inactive: -4.92%.

Q: With `CCOC(=O)c1cc(-c2ccc(Cl)cc2)nc2c1c(C)nn2CCC#N` as the compound, how does the Potency read?
A: Its Potency is inconclusive: 31.6 µM [activator, partial curve].

Q: How did the Potency turn out when `COc1ccc(-c2nn3c(COc4ccccc4)nnc3s2)cc1OC` was run?
A: The Potency was inconclusive: 39.8 µM [activator, single point].

Q: `CCC(C(=O)O)n1nnc(-c2ccc(-c3ccc(OC)cc3)cc2)n1` (stereo not given) was tested. Which Potency did it give?
A: Its Potency is inconclusive: 39.8 µM [activator, single point].

Q: How did the max response, negative = inhibition turn out when `Oc1ccc([C@H](O)C2CCCCN2)cc1O` (stereo not given in full) was run?
A: Its max response, negative = inhibition is inactive: 2.82%.

Q: For `O=C(/C=C/c1ccc(-c2ccccc2[N+](=O)[O-])o1)c1ccc(Br)cc1`, which Potency is on record?
A: The Potency was inconclusive: 31.6 µM [inhibitor, single point].

Q: Which max response, negative = inhibition does the source give for `O=C(Nc1ccc(Cl)cc1)C1CCN(S(=O)(=O)c2ccc(Br)s2)CC1` here?
A: Its max response, negative = inhibition is inactive: -26.3%.

Q: For `Cc1ccccc1C(=O)Nc1ccc(C(=O)OCc2cc(=O)n3nc(C4CC4)sc3n2)cc1`, which Potency is on record?
A: The Potency was inconclusive: 39.8 µM [activator, single point].

Q: For `Cc1ccc(-n2ncc(C(=O)NCCCN3CCc4ccccc4C3)c2C2CCN(C(=O)OC(C)(C)C)CC2)cc1C`, which max response, negative = inhibition is on record?
A: The max response, negative = inhibition was inactive: -5.71%.

Q: How did the Potency turn out when `Cc1cc(C)nc(SCc2nnc(SCC(=O)Nc3cc(C(F)(F)F)ccc3Cl)o2)n1` was run?
A: Its Potency is inconclusive: 25.1 µM [activator, single point].

Q: For `COc1ccc2c(Sc3ccc(Cl)cc3)c(C(=O)N3CCCCC3)[nH]c2c1`, which Potency is on record?
A: Its Potency is inconclusive: 31.6 µM [activator, single point].

Q: With `Cc1nc(N)c(C#N)c(-c2ccccc2Cl)c1C` as the compound, how does the Potency read?
A: Its Potency is inconclusive: 39.8 µM [inhibitor, single point].

Q: For `CN(Cc1ccco1)c1ccnc(-c2ccoc2)n1`, which max response, negative = inhibition is on record?
A: Its max response, negative = inhibition is inactive: -0.698%.

Q: How did the Potency turn out when `CCOC(=O)c1c(NC(=O)C(C)Sc2cn(C)c3ccccc23)sc2c1CCC2` (stereo not given) was run?
A: Its Potency is inconclusive: 31.6 µM [inhibitor, single point].

Q: How did the Potency turn out when `CC(C)(C)c1ccc(C(=O)N2CCC(=O)N(C(CO)Cc3ccccc3)CC2)cc1` (stereo not given) was run?
A: The Potency was inconclusive: 25.1 µM [activator, single point].

Q: Which Potency does the source give for `Cc1ccc(-n2nnnc2SC(C)C(=O)NCC(=O)Nc2ccc(F)c(F)c2F)c(C)c1` (stereo not given) here?
A: The Potency was inconclusive: 39.8 µM [activator, single point].

Q: `CCCCCCC1CCC(C(=O)NC(C(=O)O)C(C)C)CC1` (stereo not given) was tested. Which Potency did it give?
A: Its Potency is inconclusive: 3.16 µM [activator, single point].

Q: With `CCOC(=O)c1c(-n2c(C)cc(C=C3C(=O)NC(=S)NC3=O)c2C)sc2c1CCCC2` as the compound, how does the Potency read?
A: Its Potency is inconclusive: 31.6 µM [activator, single point].

Q: With `O=C(CN1CCOCC1)N1CCCc2c1c(=O)oc1ccc(OCc3ccccc3)cc21` as the compound, how does the Potency read?
A: The Potency was inconclusive: 31.6 µM [activator, single point].

Q: For `COc1ccc(/C=C/c2nnc(NC(=O)COc3ccc(C)cc3)s2)cc1`, which Potency is on record?
A: Its Potency is inconclusive: 20 µM [inhibitor, single point].

Q: Which max response, negative = inhibition does the source give for `CCOC(=O)CSc1nc2cc3c(cc2c(=O)n1CCCCCC(=O)NCc1ccc(OC)cc1)OCO3` here?
A: The max response, negative = inhibition was inactive: 4.69%.

Q: Which max response, negative = inhibition does the source give for `CN(C)c1ccc(CNC(=O)c2ccc3nc(CCc4ccccc4)oc3c2)cc1` here?
A: Its max response, negative = inhibition is inactive: -2.56%.

Q: For `Cc1ccc(N2C(=O)CSC23C(=O)N(CC(=O)Nc2ccccc2F)c2ccccc23)cc1C` (stereo not given), which Potency is on record?
A: The Potency was inconclusive: 39.8 µM [inhibitor, single point].

Q: For `COc1ccccc1NC(=O)Cn1c(=O)n(-c2ccc(C)cc2)c(=O)c2c1cnn2C`, which max response, negative = inhibition is on record?
A: The max response, negative = inhibition was inactive: 6.1%.

Q: For `CCCOC(=O)Nc1sc2c(c1C(=O)OCC)CCC2`, which Potency is on record?
A: The Potency was inconclusive: 3.98 µM [inhibitor, full curve].

Q: For `CCOC(=O)c1c(-c2ccccc2)csc1NC(=O)c1cc2ccccc2oc1=O`, which Potency is on record?
A: The Potency was active: 15.8 µM.

Q: Which max response, negative = inhibition does the source give for `CCc1cccc(NC(=O)CCNS(=O)(=O)c2ccc3c(c2)CCN3C(C)=O)c1` here?
A: The max response, negative = inhibition was inactive: 0.355%.

Q: With `CC(=O)Nc1ccc2oc(-c3cc(F)c(F)cc3Cl)nc2c1` as the compound, how does the Potency read?
A: Its Potency is inconclusive: 7.94 µM [activator, full curve].

Q: `C=C(NC(=O)C(=C)NC(=O)c1csc(C2=NC3c4csc(n4)C4NC(=O)c5csc(n5)C(C(C)(O)C(C)O)NC(=O)C5CSC(=N5)C(=CC)NC(=O)C(C(C)O)NC(=O)c5csc(n5)C3(CC2)NC(=O)C(C)NC(=O)C(=C)NC(=O)C(C)NC(=O)C(C(C)CC)NC2C=Cc3c(C(C)O)cc(nc3C2O)C(=O)OC4C)n1)C(N)=O` (stereo not given) was tested. Which Potency did it give?
A: Its Potency is inconclusive: 39.8 µM [activator, single point].
